Source: patent US20140056902A1
Changes are numbered by the printed parent chain. Results are given in words; binding and its absence hold for the method and conditions named. Some results given as binding are weak or reduced against the parent protein; the word gives no strength.

Legend:
[1] = molecular target: T1, chimeric protein 3 of human BMP9/10 region C (human) (UniProt Q9UK05); assay: antigen-immobilized ELISA
T1 sequence 1: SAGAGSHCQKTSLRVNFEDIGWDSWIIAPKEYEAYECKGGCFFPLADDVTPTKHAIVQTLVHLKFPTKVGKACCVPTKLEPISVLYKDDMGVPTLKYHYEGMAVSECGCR
T1 sequence 2: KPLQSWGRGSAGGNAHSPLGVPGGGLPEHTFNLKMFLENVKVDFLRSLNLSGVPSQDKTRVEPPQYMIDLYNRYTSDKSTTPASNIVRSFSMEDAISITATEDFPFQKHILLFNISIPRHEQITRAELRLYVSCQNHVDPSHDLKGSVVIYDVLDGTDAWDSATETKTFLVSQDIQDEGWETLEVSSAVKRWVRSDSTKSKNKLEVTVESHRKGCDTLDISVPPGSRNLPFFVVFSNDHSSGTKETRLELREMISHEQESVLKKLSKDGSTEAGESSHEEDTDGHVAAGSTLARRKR

[2] = molecular target: T1, chimeric protein 3 of human BMP9/10 region C (human); assay: antigen-immobilized ELISA, antigen coated at 3 ug/mL, antibody 1000 ng/mL; + = absorbance of 1 or more
[3] = molecular target: human BMP9 recombinant protein prepared according to Example 12 of WO 2010/126169 (N-terminal His-tagged hBMP9 complex, pLN1V5_human BMP9 vector) (human) (UniProt Q9UK05); assay: as above
[4] = molecular target: human BMP9 recombinant protein prepared according to Example 12 of WO 2010/126169 (N-terminal His-tagged hBMP9 complex, pLN1V5_human BMP9 vector) (human) (UniProt Q9UK05); assay: competition ELISA against biotin-labeled R&D antibody; inhibitory at a lower concentration than R&D antibody
[5] = molecular target: T2, chimeric protein 2 of human BMP9/10 region C (human) (UniProt Q9UK05); assay: condition: absorbance of less than 1 at 1000 ng/mL antibody; antigen-immobilized ELISA, antigen coated at 3 ug/mL
T2 sequence 1: T1 sequence 1 with E80S, V84I, L95Y, Y97F, H98K, A103S, S105A
T2 sequence 2: T1 sequence 2

[6] = molecular target: chimeric protein 5 of human BMP9/10 region C (human) (UniProt Q9UK05); assay: as above
[7] = molecular target: human BMP9 recombinant protein prepared according to Example 12 of WO 2010/126169 (N-terminal His-tagged hBMP9 complex, pLN1V5_human BMP9 vector) (human) (UniProt Q9UK05); assay: blocking ELISA on immobilized human BMP9 (3 ug/mL coat): antibody at 1000 ng/mL with 3 ug/mL BMPRII-Fc, bound Fc detected, inhibitory activity (%)
[8] = molecular target: human BMP9 recombinant protein prepared according to Example 12 of WO 2010/126169 (N-terminal His-tagged hBMP9 complex, pLN1V5_human BMP9 vector) (human) (UniProt Q9UK05); assay: competition ELISA on immobilized human BMP9: unlabeled antibody against 50 ng/mL biotin-labeled R&D antibody, inhibitory activity (%); unit ng/mL from the legend

binding [1]: binds | binding [2]: binds | binding [3]: binds | binding [4]: binds | binding [5]: no binding | binding [6]: no binding | binding [7]: binds | binding [8]: binds
B1: 6D10-1-1 antibody (antibody, mouse IgG1, V domains shown)
VH: QVQLQQSGAELVRPGTSVKVSCKASGYAFTNYLMEWIKQRPGQGLEWIGVIHPGIGVTNYNEKFKGKATLTADISSSTAYMQLSSLTSEDSAVYFCARRANWDLYYFDYWGQGTTLTVSS
VL: DIQMTQITSSLSASLGDRVTISCSASQDISNYLNWYQQKPDGTVKLLIYYTSSLHSEVPSRFSGSGSGTDYSLTISNLEPEDIATYYCQQYINLPLTFGAGTKLELKR
